# Assay results published in PubChem BioAssay (Tox21).
# Calls of active or inactive are those of the source. Unless noted, calls come from the whole dose curve; as a rule, active = well fitted curve in the direction sought with a large enough effect in the repeat runs; inconclusive = weak or mixed curves; inactive = no such curve, though single readings can be large; an effect the other way counts as inactive or inconclusive.
# Key:
# [1] = qHTS assay for small molecule agonists of the p53 signaling pathway (AID 651631; calls by dose curve; note: nearly all actives have a fitted effect of over 15% in size; note: potency is the fitted concentration of half-maximal effect; for activation: % is set by controls: 0 for no effect and ±100 for the full control effect); conditions: HCT-116 p53RE-bla reporter, beta-lactamase FRET ratio, 16 h; activation: at 73.3 µM (top of the series) unless noted
# Outline: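 Testing took place in human colorectal HCT-116 cells with stable p53RE-driven beta-lactamase. After 16 h of compound exposure at 37 °C, a FRET substrate was added and fluorescence recorded 2 h later.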
# [2] = qHTS assay for small molecule disruptors of the mitochondrial membrane potential (AID 720635); conditions: HepG2 mitochondrial membrane potential, Mito-MPS dye ratio; ratio activity, negative = MMP loss: at 83.2 µM (top of the series) unless noted; note: potency is the fitted concentration of half-maximal effect; for ratio activity, negative = MMP loss: % is set by controls: 0 for no effect and ±100 for the full control effect
# Outline: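 HepG2 cells (2,000/well) attached overnight at 37C, then took compound for 1 hr at 37C, 5% CO2. Mito-MPS dye was added for 30 min; fluorescence was read at 490/535 nm (monomers) and 540/590 nm (aggregates).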
# [3] = molecular target: Glucocorticoid receptor (Homo sapiens) (UniProt P04150); experiment: qHTS assay to identify small molecule agonists of the glucocorticoid receptor (GR) signaling pathway (AID 720691; active = well fitted activation curve with a large enough effect in the signal ratio in the repeat runs, not every such curve was filed as active; inconclusive = weak or mixed curves, or effect the other way; inactive = no such curve, though single readings can be large or run the other way; the % refers to the signal ratio; note: potency is the fitted concentration of half-maximal effect); conditions: GR-bla HeLa, beta-lactamase reporter ratio, 18 h; activation: at 62.4 µM (top of the series) unless noted
# Outline: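 Agonist mode in a HeLa line carrying a GRE-controlled beta-lactamase reporter. Compounds act for 18 h at 37 C before a 2 h room-temperature FRET substrate step and fluorescence reading.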
# [4] = molecular target: Glucocorticoid receptor (Homo sapiens) (UniProt P04150); experiment: qHTS assay to identify small molecule antagonists of the glucocorticoid receptor (GR) signaling pathway (AID 720692; active = well fitted inhibition curve with a large enough effect in the signal ratio in the repeat runs, not every such curve was filed as active; inconclusive = weak or mixed curves, or effect the other way; inactive = no such curve, though single readings can be large or run the other way; the % refers to the signal ratio; note: potency is the fitted concentration of half-maximal effect); conditions: GR-bla HeLa, beta-lactamase FRET ratio, dexamethasone-stimulated, 18 h; activity change, negative = inhibition: at 58.5 µM (top of the series) unless noted
# Outline: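 Cells plated, rested 4 h at 37 C/5% CO2; compounds in DMSO pin-transferred; dexamethasone added to 5 nM final; 18 h at 37 C; B/G FRET substrate added, 2 h room temperature; fluorescence measured.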
# [5] = qHTS assay for identifying genotoxic compounds that show differential cytotoxicity against isogenic chicken DT40 cell lines with known DNA damage response pathways - Rev3 mutant cell line (AID 743014); conditions: chicken DT40 Rev3-/- viability, CellTiter-Glo, 40 h; activity, negative = cytotoxicity: at 68.4 µM (top of the series) unless noted; note: potency is the fitted concentration of half-maximal effect; nearly all actives have a fitted effect of over 55% in size
# [6] = qHTS assay to identify small molecule antagonists of the thyroid receptor (TR) signaling pathway - cell viability counter screen (AID 743064); conditions: GH3.TRE-Luc viability, CellTiter-Fluor, 24 h; activity change, negative = cytotoxic: at 70.3 µM (top of the series) unless noted; note: nearly all actives have a fitted effect of over 50% in size; note: potency is the fitted concentration of half-maximal effect
# Outline: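 Viability of T3-stimulated (1 nM final) GH3.TRE-Luc cells is measured by CellTiter-Fluor fluorescence after 23.5 h compound exposure at 37 °C plus 30 min reagent incubation.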
# [7] = molecular target: Estrogen receptor (Homo sapiens) (UniProt P03372); experiment: qHTS assay to identify small molecule antagonists of the estrogen receptor alpha (ER-alpha) signaling pathway (AID 743069; active = well fitted curve in the direction sought with a large enough effect in the signal ratio in the repeat runs, not every such curve was filed as active; inconclusive = weak or mixed curves, or effect the other way; inactive = no such curve, though single readings can be large or run the other way; the % refers to the signal ratio; note: potency is the fitted concentration of half-maximal effect); conditions: HEK293 ER-alpha-UAS-bla, beta-lactamase ratio, antagonist mode; activity, negative = inhibition: at 69.4 µM (top of the series) unless noted
# Outline: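 HEK293 cells stably carrying an ER-alpha-UAS-bla beta-lactamase reporter were pre-cultured overnight in 2% charcoal-stripped FBS medium. Test compounds in DMSO were added together with 17beta-estradiol for 18 hr at 37C. Read-out was fluorescence after 2 hr with LiveBLAzer B/G FRET substrate at room temperature.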
# [8] = molecular target: Estrogen receptor (Homo sapiens) (UniProt P03372); experiment: qHTS assay to identify small molecule agonists of the estrogen receptor alpha (ER-alpha) signaling pathway (AID 743075; calls by dose curve; note: potency is the fitted concentration of half-maximal effect); conditions: HEK293 ER-alpha-UAS-bla, beta-lactamase FRET ratio, 18 h; activation: at 70.1 µM (top of the series)
# [9] = qHTS assay to identify small molecule antagonists of the estrogen receptor alpha (ER-alpha) signaling pathway using the BG1 cell line (AID 743080; calls by dose curve;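 note: BG1 cells stimulated with 17beta-estradiol alongside compound; potency is the fitted concentration of half-maximal effect; nearly all actives have a fitted effect of over 25% in size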); conditions: BG1Luc4E2 ERE-luciferase antagonist mode, luminescence; activity change, negative = inhibition: at 70.3 µM (top of the series) unless noted
# Outline: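 Luciferase inhibition measured with ONE-Glo after 30 min at RT in BG1Luc4E2 cells given test compounds and 17beta-estradiol for 21.5 h at 37 C; CellTiter-Fluor viability read in the same wells beforehand.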
# [10] = qHTS assay to identify small molecule antagonists of the estrogen receptor alpha (ER-alpha) signaling pathway using the BG1 cell line - cell viability counter screen (AID 743081); conditions: BG1Luc4E2 viability, CellTiter-Fluor, 22 h; activity change, negative = cytotoxicity: at 70.3 µM (top of the series) unless noted;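 note: compound given together with 17beta-estradiol as the ER stimulus; % is set by controls: 0 for no effect and ±100 for the full control effect; nearly all actives have a fitted effect of over 45% in size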
# [11] = molecular target: Aryl hydrocarbon receptor (Homo sapiens) (UniProt P35869); experiment: qHTS assay to identify small molecule that activate the aryl hydrocarbon receptor (AhR) signaling pathway (AID 743085); note: potency is the fitted concentration of half-maximal effect; nearly all actives have a fitted effect of over 15% in size
# Outline: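 A multiplexed format paired cell viability (CellTiter-Fluor fluorescence) with AhR-dependent luciferase output (ONE-Glo luminescence) in the same wells of HepG2 DRE-luc cells after 24 h compound exposure at 37C.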
# [12] = molecular target: Nuclear receptor subfamily 1 group I member 2 (Homo sapiens) (UniProt O75469); experiment: CYP3A4 induction through human pregnane X receptor (PXR) by small molecules, qHTS assay (AID 1346984); conditions: DPX-2 HepG2 PXR, CYP3A4-luciferin luminescence, 24 h; activation: at 46.1 µM (top of the series) unless noted; note: potency is the fitted concentration of half-maximal effect; nearly all actives have a fitted effect of over 40% in size
# Outline: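 Steps: seed DPX-2 cells, 5 hr at 37C; pin-transfer compounds; 24 hr at 37C; add Luciferin-IPA (3uM final), 3 hr at 37C; add One-Glo, 30 min RT; read luminescence.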
# [13] = molecular target: Nuclear receptor subfamily 1 group I member 2 (Homo sapiens) (UniProt O75469); experiment: Human pregnane X receptor (PXR) activation by small molecules, qHTS assay (AID 1346985); note: potency is the fitted concentration of half-maximal effect; nearly all actives have a fitted effect of over 40% in size
# Outline: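 DPX-2 cells (HepG2 co-transfected with a PXR response element and a CYP3A4-promoter luciferase construct) were seeded at 2,000 per well, rested 5 hr at 37C, then exposed to DMSO-dissolved compounds for 24 hr. Activation was read as luciferase luminescence.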
# [14] = qHTS assay to identify small molecule antagonists of the thyroid receptor (TR) signaling pathway (AID 743065); note: % is set by controls: 0 for no effect and ±100 for the full control effect; nearly all actives have a fitted effect of over 55% in size
# Outline: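 GH3.TRE-Luc rat pituitary cells carrying two TR response elements driving luciferase were plated for 4 h, given compound plus 1 nM T3 (final), and incubated 23.5 h at 37 C. ONE-Glo luminescence measured reporter inhibition; CellTiter-Fluor fluorescence tracked cytotoxicity.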
# [15] = molecular target: Nuclear receptor subfamily 1 group I member 2 (Rattus norvegicus) (UniProt Q9R1A7); experiment: Rat pregnane X receptor (rPXR) activation by small molecules, qHTS assay (AID 1346983); conditions: rPXR luciferase reporter cells, One-Glo luminescence, 24 h; max activation: stronger effect = higher value; note: potency is the fitted concentration of half-maximal effect; nearly all actives have a fitted effect of over 20% in size
# Outline: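 Cell-based rPXR luciferase reporter assay, 2,000 cells per well, rested 5hr at 37 C before compound addition in DMSO, then 24 hr at 37 C. One-Glo reagent was added and luminescence read after 30 min at room temperature.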
# [16] = qHTS assay for small molecules that induce genotoxicity in human embryonic kidney cells expressing luciferase-tagged ATAD5 (AID 651632); note: potency is the fitted concentration of half-maximal effect; nearly all actives have a fitted effect of over 15% in size
# Outline: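 Increased luciferase signal from ATAD5-tagged reporter cells indicates DNA-damage-driven ATAD5 induction. HEK293T cells are treated for 16 hr at 37C before detection with Amplite.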
# [17] = qHTS assay to test for compound auto fluorescence at 590 nm (red) in HEK293 cells (AID 720679); note: % is set by controls: 0 for no effect and ±100 for the full control effect
# Outline: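 Red-channel autofluorescence (Ex/Em 540/590 nm; Rose Bengal sodium reference) was measured after overnight 37C, 5% CO2 exposure of attached HEK293 cells, 2,000 per well in medium with 10% dialyzed FBS.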
# [18] = qHTS assay for identifying genotoxic compounds that show differential cytotoxicity against isogenic chicken DT40 cell lines with known DNA damage response pathways - wild type cell line (AID 743012); conditions: DT40 wild type chicken cells viability, CellTiter-Glo, 40 h; activity change, negative = cytotoxicity: at 68.4 µM (top of the series) unless noted; note: potency is the fitted concentration of half-maximal effect; nearly all actives have a fitted effect of over 60% in size
# Outline: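 Cells (DT40 wild type, 300/well) are treated with DMSO-dissolved compounds after a ~0.5 h pre-incubation and kept 40 h at 37 C/5% CO2. Viability is then measured by CellTiter-Glo luminescence following 30 min at room temperature.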
# [19] = molecular target: Androgen receptor (Homo sapiens) (UniProt P10275); experiment: qHTS assay to identify small molecule antagonists of the androgen receptor (AR) signaling pathway (AID 743035; active = well fitted inhibition curve with a large enough effect in the signal ratio in the repeat runs, not every such curve was filed as active; inconclusive = weak or mixed curves, or effect the other way; inactive = no such curve, though single readings can be large or run the other way; the % refers to the signal ratio; note: % is set by controls: 0 for no effect and ±100 for the full control effect); conditions: HEK293 AR-UAS-bla, R1881-stimulated, beta-lactamase FRET, 16 h; activity change, negative = inhibition: at 58.5 µM (top of the series) unless noted
# Outline: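 Antagonism is scored as loss of R1881-driven beta-lactamase reporter expression in HEK293 cells carrying the reporter under a UAS element, after 16 h co-treatment at 37C and a 2 h room-temperature FRET substrate read.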
# Tags give direction and shape of the fitted curve or compound fluorescence and quenching.
# Sequence of UniProt P35869 (P35869 whole entry, looked up): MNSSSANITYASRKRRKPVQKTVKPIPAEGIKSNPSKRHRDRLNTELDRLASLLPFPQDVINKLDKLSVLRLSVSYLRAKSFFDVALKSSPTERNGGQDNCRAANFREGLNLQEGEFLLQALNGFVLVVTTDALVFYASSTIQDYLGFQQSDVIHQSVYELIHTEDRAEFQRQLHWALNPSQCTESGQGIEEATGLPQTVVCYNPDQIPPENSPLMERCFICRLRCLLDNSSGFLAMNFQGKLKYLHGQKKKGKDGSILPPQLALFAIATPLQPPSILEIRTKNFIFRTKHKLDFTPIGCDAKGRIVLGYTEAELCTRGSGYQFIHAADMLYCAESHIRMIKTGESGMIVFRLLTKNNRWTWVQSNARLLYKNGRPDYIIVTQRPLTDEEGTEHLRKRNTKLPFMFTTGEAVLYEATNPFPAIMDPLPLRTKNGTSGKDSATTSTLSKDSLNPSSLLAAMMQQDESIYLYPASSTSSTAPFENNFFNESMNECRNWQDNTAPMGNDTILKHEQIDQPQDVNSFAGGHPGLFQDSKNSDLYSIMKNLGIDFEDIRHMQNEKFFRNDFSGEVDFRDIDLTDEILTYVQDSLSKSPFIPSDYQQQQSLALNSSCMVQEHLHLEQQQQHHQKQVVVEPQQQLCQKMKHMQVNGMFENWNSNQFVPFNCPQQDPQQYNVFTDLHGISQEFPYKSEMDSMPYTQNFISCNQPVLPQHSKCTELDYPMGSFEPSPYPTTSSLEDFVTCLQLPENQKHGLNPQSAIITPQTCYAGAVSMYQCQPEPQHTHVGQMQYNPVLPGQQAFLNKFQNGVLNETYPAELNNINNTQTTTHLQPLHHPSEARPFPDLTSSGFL
# Sequence of UniProt P04150 (P04150 whole entry, looked up): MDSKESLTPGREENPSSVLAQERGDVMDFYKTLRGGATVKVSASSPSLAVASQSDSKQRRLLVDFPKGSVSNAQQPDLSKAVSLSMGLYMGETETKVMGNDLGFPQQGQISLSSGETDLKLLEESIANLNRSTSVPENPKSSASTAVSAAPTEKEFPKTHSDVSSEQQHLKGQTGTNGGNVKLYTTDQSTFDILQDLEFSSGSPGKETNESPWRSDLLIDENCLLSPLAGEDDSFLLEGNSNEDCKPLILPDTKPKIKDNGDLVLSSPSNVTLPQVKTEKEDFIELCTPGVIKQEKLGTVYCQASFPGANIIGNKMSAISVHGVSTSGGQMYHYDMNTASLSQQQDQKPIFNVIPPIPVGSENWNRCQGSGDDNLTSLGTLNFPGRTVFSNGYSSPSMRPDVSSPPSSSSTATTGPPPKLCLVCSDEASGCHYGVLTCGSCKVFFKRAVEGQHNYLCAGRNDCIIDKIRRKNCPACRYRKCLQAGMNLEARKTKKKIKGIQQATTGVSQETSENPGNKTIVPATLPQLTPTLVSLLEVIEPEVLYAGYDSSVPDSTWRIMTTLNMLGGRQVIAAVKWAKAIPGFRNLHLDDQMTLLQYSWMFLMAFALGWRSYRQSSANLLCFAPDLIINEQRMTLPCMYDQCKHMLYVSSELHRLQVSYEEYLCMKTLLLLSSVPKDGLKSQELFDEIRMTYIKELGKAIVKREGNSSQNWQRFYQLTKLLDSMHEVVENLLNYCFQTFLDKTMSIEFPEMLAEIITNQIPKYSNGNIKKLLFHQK
# Sequence of UniProt P03372 (P03372 whole entry, looked up): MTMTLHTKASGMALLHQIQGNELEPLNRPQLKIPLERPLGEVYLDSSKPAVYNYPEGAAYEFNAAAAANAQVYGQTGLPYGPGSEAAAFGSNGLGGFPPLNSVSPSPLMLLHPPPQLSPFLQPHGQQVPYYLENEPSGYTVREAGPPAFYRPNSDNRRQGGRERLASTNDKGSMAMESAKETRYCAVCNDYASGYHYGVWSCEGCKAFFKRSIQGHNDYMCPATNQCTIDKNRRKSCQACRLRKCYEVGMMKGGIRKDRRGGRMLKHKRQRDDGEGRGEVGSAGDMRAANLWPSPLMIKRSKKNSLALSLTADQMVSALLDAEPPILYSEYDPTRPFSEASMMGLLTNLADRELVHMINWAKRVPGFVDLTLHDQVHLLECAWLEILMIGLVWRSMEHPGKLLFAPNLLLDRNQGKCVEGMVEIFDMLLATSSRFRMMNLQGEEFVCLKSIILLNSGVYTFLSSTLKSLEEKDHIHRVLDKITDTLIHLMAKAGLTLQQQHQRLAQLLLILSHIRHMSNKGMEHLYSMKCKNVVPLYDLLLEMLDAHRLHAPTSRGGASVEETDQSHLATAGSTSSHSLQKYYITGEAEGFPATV
# Sequence of UniProt Q9R1A7 (Q9R1A7 whole entry, looked up): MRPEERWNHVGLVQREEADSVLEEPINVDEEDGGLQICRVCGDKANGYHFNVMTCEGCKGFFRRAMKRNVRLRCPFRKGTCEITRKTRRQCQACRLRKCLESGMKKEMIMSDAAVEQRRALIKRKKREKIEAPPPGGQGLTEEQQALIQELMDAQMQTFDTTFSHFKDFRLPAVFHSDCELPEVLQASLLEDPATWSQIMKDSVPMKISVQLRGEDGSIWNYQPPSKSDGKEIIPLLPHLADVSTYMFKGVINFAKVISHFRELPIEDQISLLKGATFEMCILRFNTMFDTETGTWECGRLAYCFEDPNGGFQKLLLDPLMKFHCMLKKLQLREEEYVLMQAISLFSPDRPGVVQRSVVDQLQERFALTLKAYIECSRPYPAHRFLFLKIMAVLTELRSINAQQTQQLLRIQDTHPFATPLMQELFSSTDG
# Sequence of UniProt P10275 (P10275 whole entry, looked up): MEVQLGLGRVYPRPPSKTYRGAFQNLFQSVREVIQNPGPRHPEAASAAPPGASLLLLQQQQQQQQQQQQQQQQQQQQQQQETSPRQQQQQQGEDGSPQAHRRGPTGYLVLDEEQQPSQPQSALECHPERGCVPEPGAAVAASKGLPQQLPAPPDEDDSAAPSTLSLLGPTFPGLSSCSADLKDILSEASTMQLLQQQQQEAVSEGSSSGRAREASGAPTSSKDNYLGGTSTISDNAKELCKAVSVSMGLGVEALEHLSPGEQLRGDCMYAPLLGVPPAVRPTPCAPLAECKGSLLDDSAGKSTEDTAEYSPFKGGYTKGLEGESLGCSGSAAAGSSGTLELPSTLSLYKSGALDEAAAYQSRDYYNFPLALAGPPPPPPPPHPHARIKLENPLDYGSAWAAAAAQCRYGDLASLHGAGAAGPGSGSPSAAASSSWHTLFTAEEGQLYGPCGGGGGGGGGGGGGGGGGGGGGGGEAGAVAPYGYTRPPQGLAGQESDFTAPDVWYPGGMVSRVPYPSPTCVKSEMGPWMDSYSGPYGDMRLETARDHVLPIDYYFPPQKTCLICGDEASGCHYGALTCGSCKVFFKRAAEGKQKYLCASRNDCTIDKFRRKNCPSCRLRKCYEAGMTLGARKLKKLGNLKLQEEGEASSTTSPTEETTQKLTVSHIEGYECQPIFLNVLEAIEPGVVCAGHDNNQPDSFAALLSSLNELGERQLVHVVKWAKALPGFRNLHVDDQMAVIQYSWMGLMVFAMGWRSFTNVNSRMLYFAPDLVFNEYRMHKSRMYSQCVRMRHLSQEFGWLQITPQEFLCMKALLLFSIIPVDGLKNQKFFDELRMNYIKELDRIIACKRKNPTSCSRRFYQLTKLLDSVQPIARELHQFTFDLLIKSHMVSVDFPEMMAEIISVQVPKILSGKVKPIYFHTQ
compound,measurement,setting,value
C[C@]12CCC(=O)C=C1CC[C@@H]1[C@@H]2[C@@H](O)C[C@@]2(C)[C@H]1CC[C@]2(O)C(=O)COP(=O)(O)O,activation,[1],inconclusive: -3.64%
same,"ratio activity, negative = MMP loss",[2],inconclusive: -22.9%
same,Potency,[3],active: 0.674 µM [inconclusive]
same,Potency,[4],"inconclusive: 0.674 µM [activator, full curve]"
same,Potency,[5],"inconclusive: 16.8 µM [rising, partial curve, poor fit]"
same,Potency,[6],inactive
same,"activity, negative = inhibition",[7],inconclusive: 27.4%
same,Potency,[8],"inconclusive: 21.3 µM [activator, partial curve]"
same,Potency,[9],"inconclusive: 4.22 µM [rising, full curve, poor fit]"
same,Potency,[10],inactive
same,Potency,[11],"inconclusive: 15 µM [activator, partial curve, poor fit]"
same,Potency,[12],"inconclusive: 0.0794 µM [activator, partial curve]"
same,Potency,[13],"inconclusive: 31.6 µM [activator, single point]"
C#CCOc1ccc2c(C)cc(=O)oc2c1,Potency,[1],inactive
same,Potency,[2],"inconclusive: 2.98 µM [rising, single point]"
same,Potency,[5],"inconclusive: 23.7 µM [cytotoxic, partial curve]"
same,Potency,[6],"inconclusive: 33.5 µM [rising, partial curve, poor fit]"
same,Potency,[14],inactive
same,Potency,[7],"inconclusive: 10.7 µM [activator, full curve, poor fit]"
same,Potency,[11],"inconclusive: 33.5 µM [activator, partial curve, poor fit]"
same,Potency,[15],"inconclusive: 25.1 µM [activator, partial curve]"
same,Potency,[13],"inconclusive: 10 µM [activator, full curve, poor fit]"
CC(NNC(=O)c1ccccc1)c1ccccc1 (stereo not given),Potency,[16],"inconclusive: 13.3 µM [activator, full curve, poor fit]"
same,Potency,[17],inactive
same,Potency,[18],"inconclusive: 11.9 µM [cytotoxic, partial curve]"
same,"activity change, negative = inhibition",[19],inconclusive: -67.7%
same,Potency,[11],active: 11.9 µM
same,Potency,[15],"inconclusive: 12.6 µM [activator, partial curve]"
same,Potency,[13],"inconclusive: 8.91 µM [activator, full curve, poor fit]"
CN1C(=O)CN2CCc3ccccc3C2c2cc(Cl)ccc21 (stereo not given),Potency,[1],active: 29.8 µM
same,Potency,[4],"inconclusive: 2.13 µM [inhibitor, single point]"
same,Potency,[18],"inconclusive: 33.5 µM [cytotoxic, partial curve, poor fit]"
same,Potency,[9],active: 21.1 µM
same,Potency,[11],active: 4.73 µM
same,Potency,[15],"inconclusive: 7.94 µM [activator, partial curve]"
